# According to article PMC12820563:
# This is one part of the list. The list includes weakly bound sequences.
# Target: T1, MBP-FoxP3dN (UniProt Q99JB6)
# T1 sequence: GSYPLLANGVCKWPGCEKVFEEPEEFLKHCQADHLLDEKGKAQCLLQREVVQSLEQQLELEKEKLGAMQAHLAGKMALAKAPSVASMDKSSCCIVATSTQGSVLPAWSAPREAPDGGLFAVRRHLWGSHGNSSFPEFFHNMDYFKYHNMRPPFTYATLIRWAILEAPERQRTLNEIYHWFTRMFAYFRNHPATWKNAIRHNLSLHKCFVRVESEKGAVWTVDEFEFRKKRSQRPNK
# Experiment: PD-seq (MBP pull-down with sequencing)
# Conditions: 20 mM Tris-HCl pH 7.5, 100 mM NaCl, 1.5 mM MgCl2, 0.4 uM protein, 0.1 uM dsDNA library, 30 min, room temperature, amylose pull-down; high values mean tight binding; double strand, one strand shown
row,Sequence,binding signal (RPM ratio (pull-down/input))
1,GATGATTGTTCTCCCAGCTGATGAATTGGCTCTTTCGAGTAAACAAATTTTCCTAATCTTTCTGTTCAAGCGCCATCTAC,0.389
2,GATGATTGTTCTCCCAGCTGATGAATTTTTGGTTTCGAGTAAACAAATTTTCCTAATCTTTCTGTTCAAGCGCCATCTAC,0.401
3,GATGATTGTTCTCCCAGCTGATGAATTGGAAGTATCGAGTAAACAAATTTTCCTAATCTTTCTGTTCAAGCGCCATCTAC,0.404
4,GATGATTGTTCTCCCAGCTGATGAATTCTAGTGATCGAGTAAACAAATTTTCCTAATCTTTCTGTTCAAGCGCCATCTAC,0.495
5,GATGATTGTTCTCCCAGCTGATGAATTTGGAAGCTCGAGTAAACAAATTTTCCTAATCTTTCTGTTCAAGCGCCATCTAC,0.302
6,GATGATTGTTCTCCCAGCTGATGAATTACTGTCGTCGAGTAAACAAATTTTCCTAATCTTTCTGTTCAAGCGCCATCTAC,0.462
7,GATGATTGTTCTCCCAGCTGATGAATTTAAGCATTCGAGTAAACAAATTTTCCTAATCTTTCTGTTCAAGCGCCATCTAC,5.65
8,GATGATTGTTCTCCCAGCTGATGAATTTCTAGCATCGAGTAAACAAATTTTCCTAATCTTTCTGTTCAAGCGCCATCTAC,0.736
9,GATGATTGTTCTCCCAGCTGATGAATTCGGTAGCTCGAGTAAACAAATTTTCCTAATCTTTCTGTTCAAGCGCCATCTAC,0.643
10,GATGATTGTTCTCCCAGCTGATGAATTGAGTAGCTCGAGTAAACAAATTTTCCTAATCTTTCTGTTCAAGCGCCATCTAC,0.581
11,GATGATTGTTCTCCCAGCTGATGAATTTTACTGGTCGAGTAAACAAATTTTCCTAATCTTTCTGTTCAAGCGCCATCTAC,0.331
12,GATGATTGTTCTCCCAGCTGATGAATTGTCTTAGTCGAGTAAACAAATTTTCCTAATCTTTCTGTTCAAGCGCCATCTAC,0.483
13,GATGATTGTTCTCCCAGCTGATGAATTTGAACGGTCGAGTAAACAAATTTTCCTAATCTTTCTGTTCAAGCGCCATCTAC,0.252
14,GATGATTGTTCTCCCAGCTGATGAATTATTTACTTCGAGTAAACAAATTTTCCTAATCTTTCTGTTCAAGCGCCATCTAC,3.12
15,GATGATTGTTCTCCCAGCTGATGAATTGAATGGCTCGAGTAAACAAATTTTCCTAATCTTTCTGTTCAAGCGCCATCTAC,0.431
16,GATGATTGTTCTCCCAGCTGATGAATTCTTAATTTCGAGTAAACAAATTTTCCTAATCTTTCTGTTCAAGCGCCATCTAC,0.3
17,GATGATTGTTCTCCCAGCTGATGAATTAGACTGATCGAGTAAACAAATTTTCCTAATCTTTCTGTTCAAGCGCCATCTAC,0.303
18,GATGATTGTTCTCCCAGCTGATGAATTTTCAGCCTCGAGTAAACAAATTTTCCTAATCTTTCTGTTCAAGCGCCATCTAC,0.34
19,GATGATTGTTCTCCCAGCTGATGAATTTAATTTTTCGAGTAAACAAATTTTCCTAATCTTTCTGTTCAAGCGCCATCTAC,1.47
20,GATGATTGTTCTCCCAGCTGATGAATTCGGCTCTTCGAGTAAACAAATTTTCCTAATCTTTCTGTTCAAGCGCCATCTAC,0.488
21,GATGATTGTTCTCCCAGCTGATGAATTGGGTATATCGAGTAAACAAATTTTCCTAATCTTTCTGTTCAAGCGCCATCTAC,1.17

row,Sequence,binding signal (RPM ratio (pull-down/input))
1,GATGATTGTTCTCCCAGCTGATGAATTTATCAGCTCGAGTAAACAAATTTTCCTAATCTTTCTGTTCAAGCGCCATCTAC,0.714
2,GATGATTGTTCTCCCAGCTGATGAATTAGCGTTTTCGAGTAAACAAATTTTCCTAATCTTTCTGTTCAAGCGCCATCTAC,1.5
3,GATGATTGTTCTCCCAGCTGATGAATTGGTAGCGTCGAGTAAACAAATTTTCCTAATCTTTCTGTTCAAGCGCCATCTAC,0.977
4,GATGATTGTTCTCCCAGCTGATGAATTGTAGTAGTCGAGTAAACAAATTTTCCTAATCTTTCTGTTCAAGCGCCATCTAC,0.954
5,GATGATTGTTCTCCCAGCTGATGAATTGTGTTGGTCGAGTAAACAAATTTTCCTAATCTTTCTGTTCAAGCGCCATCTAC,6.68
6,GATGATTGTTCTCCCAGCTGATGAATTCTATGGGTCGAGTAAACAAATTTTCCTAATCTTTCTGTTCAAGCGCCATCTAC,0.49
7,GATGATTGTTCTCCCAGCTGATGAATTCGTTAAGTCGAGTAAACAAATTTTCCTAATCTTTCTGTTCAAGCGCCATCTAC,0.33
8,GATGATTGTTCTCCCAGCTGATGAATTGCGGTGATCGAGTAAACAAATTTTCCTAATCTTTCTGTTCAAGCGCCATCTAC,0.978
9,GATGATTGTTCTCCCAGCTGATGAATTTCGGGACTCGAGTAAACAAATTTTCCTAATCTTTCTGTTCAAGCGCCATCTAC,0.358
10,GATGATTGTTCTCCCAGCTGATGAATTCCGGGACTCGAGTAAACAAATTTTCCTAATCTTTCTGTTCAAGCGCCATCTAC,0.306
11,GATGATTGTTCTCCCAGCTGATGAATTCAATCCGTCGAGTAAACAAATTTTCCTAATCTTTCTGTTCAAGCGCCATCTAC,0.332
12,GATGATTGTTCTCCCAGCTGATGAATTCCATCGTTCGAGTAAACAAATTTTCCTAATCTTTCTGTTCAAGCGCCATCTAC,0.602
13,GATGATTGTTCTCCCAGCTGATGAATTCGTACCATCGAGTAAACAAATTTTCCTAATCTTTCTGTTCAAGCGCCATCTAC,0.621
14,GATGATTGTTCTCCCAGCTGATGAATTGCACCCTTCGAGTAAACAAATTTTCCTAATCTTTCTGTTCAAGCGCCATCTAC,0.919
15,GATGATTGTTCTCCCAGCTGATGAATTGCGCCGGTCGAGTAAACAAATTTTCCTAATCTTTCTGTTCAAGCGCCATCTAC,1.17
16,GATGATTGTTCTCCCAGCTGATGAATTTGGCTGATCGAGTAAACAAATTTTCCTAATCTTTCTGTTCAAGCGCCATCTAC,0.615
17,GATGATTGTTCTCCCAGCTGATGAATTAATACCATCGAGTAAACAAATTTTCCTAATCTTTCTGTTCAAGCGCCATCTAC,0.568
18,GATGATTGTTCTCCCAGCTGATGAATTCTTGATTTCGAGTAAACAAATTTTCCTAATCTTTCTGTTCAAGCGCCATCTAC,0.467
19,GATGATTGTTCTCCCAGCTGATGAATTCGTTTCATCGAGTAAACAAATTTTCCTAATCTTTCTGTTCAAGCGCCATCTAC,0.958
20,GATGATTGTTCTCCCAGCTGATGAATTGTCTGTTTCGAGTAAACAAATTTTCCTAATCTTTCTGTTCAAGCGCCATCTAC,0.639
21,GATGATTGTTCTCCCAGCTGATGAATTGGGTATCTCGAGTAAACAAATTTTCCTAATCTTTCTGTTCAAGCGCCATCTAC,2.44

row,Sequence,binding signal (RPM ratio (pull-down/input))
1,GATGATTGTTCTCCCAGCTGATGAATTCGCCCCCTCGAGTAAACAAATTTTCCTAATCTTTCTGTTCAAGCGCCATCTAC,0.388
2,GATGATTGTTCTCCCAGCTGATGAATTCAGCATGTCGAGTAAACAAATTTTCCTAATCTTTCTGTTCAAGCGCCATCTAC,4.71
3,GATGATTGTTCTCCCAGCTGATGAATTGATGGACTCGAGTAAACAAATTTTCCTAATCTTTCTGTTCAAGCGCCATCTAC,0.493
4,GATGATTGTTCTCCCAGCTGATGAATTCGTTAACTCGAGTAAACAAATTTTCCTAATCTTTCTGTTCAAGCGCCATCTAC,0.54
5,GATGATTGTTCTCCCAGCTGATGAATTAGGGTCGTCGAGTAAACAAATTTTCCTAATCTTTCTGTTCAAGCGCCATCTAC,0.706
6,GATGATTGTTCTCCCAGCTGATGAATTGACTCGATCGAGTAAACAAATTTTCCTAATCTTTCTGTTCAAGCGCCATCTAC,0.303
7,GATGATTGTTCTCCCAGCTGATGAATTTAGATAGTCGAGTAAACAAATTTTCCTAATCTTTCTGTTCAAGCGCCATCTAC,0.637
8,GATGATTGTTCTCCCAGCTGATGAATTCCTCTGATCGAGTAAACAAATTTTCCTAATCTTTCTGTTCAAGCGCCATCTAC,0.244
9,GATGATTGTTCTCCCAGCTGATGAATTATGTATGTCGAGTAAACAAATTTTCCTAATCTTTCTGTTCAAGCGCCATCTAC,4.99
10,GATGATTGTTCTCCCAGCTGATGAATTCATTAATTCGAGTAAACAAATTTTCCTAATCTTTCTGTTCAAGCGCCATCTAC,0.349
11,GATGATTGTTCTCCCAGCTGATGAATTCGGTAAGTCGAGTAAACAAATTTTCCTAATCTTTCTGTTCAAGCGCCATCTAC,0.389
12,GATGATTGTTCTCCCAGCTGATGAATTACAAACCTCGAGTAAACAAATTTTCCTAATCTTTCTGTTCAAGCGCCATCTAC,0.531
13,GATGATTGTTCTCCCAGCTGATGAATTAGCCATGTCGAGTAAACAAATTTTCCTAATCTTTCTGTTCAAGCGCCATCTAC,0.552
14,GATGATTGTTCTCCCAGCTGATGAATTGGCTATCTCGAGTAAACAAATTTTCCTAATCTTTCTGTTCAAGCGCCATCTAC,0.713
15,GATGATTGTTCTCCCAGCTGATGAATTTAGAAGCTCGAGTAAACAAATTTTCCTAATCTTTCTGTTCAAGCGCCATCTAC,0.266
16,GATGATTGTTCTCCCAGCTGATGAATTCATTGGATCGAGTAAACAAATTTTCCTAATCTTTCTGTTCAAGCGCCATCTAC,0.307
17,GATGATTGTTCTCCCAGCTGATGAATTCGAGTTGTCGAGTAAACAAATTTTCCTAATCTTTCTGTTCAAGCGCCATCTAC,0.822
18,GATGATTGTTCTCCCAGCTGATGAATTTTAGAAATCGAGTAAACAAATTTTCCTAATCTTTCTGTTCAAGCGCCATCTAC,0.28
19,GATGATTGTTCTCCCAGCTGATGAATTTTGTCCTTCGAGTAAACAAATTTTCCTAATCTTTCTGTTCAAGCGCCATCTAC,1.7
20,GATGATTGTTCTCCCAGCTGATGAATTGAGACGTTCGAGTAAACAAATTTTCCTAATCTTTCTGTTCAAGCGCCATCTAC,0.368
21,GATGATTGTTCTCCCAGCTGATGAATTGCCTATCTCGAGTAAACAAATTTTCCTAATCTTTCTGTTCAAGCGCCATCTAC,0.625
